Here are results for five compounds from PubChem BioAssay AID2060902 (Molecular Pharmacology Branch, DTP, NCI, 2025).

Some entries of the source have several records that differ or are many. This is not the full list of results. The source may hold further records. Values given together are repeats in other runs, samples, wells, individuals or studies.

A word on the viability, T/C: it is the result in the treated group divided by that in the control group, in per cent. A word on the IC50: it is the concentration that inhibits the measured activity by half.

The subject of the test is 485368-065-R3-J5-PDC spheroids with HUVEC/MSC, viability. In words: Anticancer human tumor 485368-065-R3-J5-PDC patient-derived pancreatic carcinoma cell line growth inhibition [RAS]. To be noted: for viability, T/C: stronger effect = lower value; for IC50: compound alone. The source says:
RAS pathway inhibitors in Combinations in Complex Spheroids
A high-throughput screen of multi-cell type tumor spheroids was designed to identify active combinations of RAS pathway inhibitors and targeted small molecules. Complex spheroids include a stromal component modeled by human endothelial cells (HUVEC) and fibroblasts modeled by human mesenchymal stem cells (MSCs). The concentration ranges selected for each drug and investigational agent were based upon clinically achievable concentrations if the clinical Cmax of the agent was known.
Compounds. The drugs and investigational agents: abemaciclib (NSC768073), cobimetinib (NSC768068), divarasib (GDC6063, NSC841802), docetaxel (NSC628503), GDC-1971 (RLY-1971, NSC841576), gemcitabine (NSC613327), inavolisib (NSC800729), ipatasertib (NSC767898), KB-0742 (NSC834161), MRTX-1133 (NSC836407), osimertinib (NSC779217), RMC-4630 (NSC839698), RMC-6236 (NSC851965), RMC-6291 (NSC852671), Ro-3306 (NSC812927), sapanisertib (NSC764658), SN-38 (NSC673596), staurosporine (NSC755774), SY5609 (NSC837396), and tovorafenib (DAY101, NSC766906), were obtained from the National Cancer Institute (NCI) Developmental Therapeutics Program Chemical Repository. The FDA-approved anticancer drug set is available from the NCI Developmental Therapeutics Program. […] The stock solutions were prepared in dimethyl sulfoxide (DMSO, Sigma-Aldrich, St. Louis, MO, cat. D2650) at 800-fold the tested concentration and stored at -70 degrees C prior to their use. All drugs and investigational agents were tested over a range starting from a high concentration at or near the clinical Cmax and decreasing in half-log increments. If the clinical Cmax for an agent had not been determined, the highest concentration tested was 10 microM.
Cell Culture. All cells were maintained in an incubator at 37 degrees C and 5% CO2 with 95% humidity. The PDC lines were cultured according to standard operating procedures established by the NCI PDMR. All PDCs were thawed and cultured in Matrigel-coated flasks prepared with a working solution of 1X Ham's F-12 nutrient mix, without supplementation (Invitrogen, Waltham, MA, cat. 11765054), 100 U/mL penicillin-streptomycin (Invitrogen, cat. 15140122), and 2.5% Matrigel (Corning Inc., Corning, NY, cat. 354248) for the first three passages. The 362531-283-R-J2-PDC and 782815-120-R-J1-PDC lines were cultured in 6C/Colon 1B media, which includes advanced DMEM/F-12 (Thermo Fisher Scientific, cat. 12634028), 10 mM HEPES (Thermo Fisher Scientific, cat. 15630080), 1X GlutaMAX supplement (Thermo Fisher Scientific, cat. 35050061), 0.1 mg/mL primocin (InvivoGen, San Diego, CA, cat. ant-pm-2), 10% defined fetal bovine serum, heat inactivated (HyClone Laboratories Inc., Logan, UT, cat. SH30070.03HI), 50% L-WRN conditioned media (ATCC, cat. CRL-3276), 1.25 mM N-Acetyl-L-cysteine (Sigma-Aldrich, cat. A9165), 10 mM nicotinamide (Sigma-Aldrich, cat. N0636), 1X B-27 supplement (Thermo Fisher Scientific, cat. 17504044), 1X N-2 supplement (Thermo Fisher Scientific, cat. 17502048), 50 ng/mL human EGF (Thermo Fisher Scientific, cat. PHG0311), and 10 microM Y-27632 dihydrochloride (Tocris Bioscience, cat. 1254). The K12877-001-R-J1-PDC line was cultured in 6I media, which includes all 6C/Colon 1B media plus 10 ng/mL human FGF-10 (PeproTech, cat. 100-26), 1 ng/mL human FGF-2 (PeproTech, cat. 100-18B), 1 µM prostaglandin E2 (Tocris Bioscience, cat. 2296), […] hydrocortisone (Sigma-Aldrich, cat. H4001), and […] bovine insulin (Sigma-Aldrich, cat. I6634). The K86415-001-R-J1-PDC line was cultured in 6D media, which includes all 6C/Colon 1B media components minus the L-WRN conditioned media. The 485176-168-R4-J1-PDC was cultured in PANC media, which includes all 6C/Colon 1B media plus 100 ng/mL human FGF-10 (PeproTech, cat. 100-26), 500 nM SB-431542 (Selleckchem, cat. S1067), and 10 nM gastrin (Tocris Bioscience, cat. 3006). […]
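Note: spheroids exposed to agents for seven days before readout.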

`Cc1nc(N2CCC3(CC2)COC(C)C3N)c(CO)nc1Sc1ccnc(N)c1Cl` (stereo unspecified): the viability, T/C reads like this: (compound alone 3.16 µM) 87.1, 86, 71.1, 56.7%; (compound alone 10 µM) 76.2, 81.4, 61.7, 56.4%.
`CCN1CCN(Cc2ccc(Nc3ncc(F)c(-c4cc(F)c5nc(C)n(C(C)C)c5c4)n3)nc2)CC1`: the IC50 is on record as 734, 851, 225, 412 nM.
For the compound `CCC(CC)c1cc(NC2CCC(N)C2)n2nccc2n1` (stereo unspecified), under “compound alone 1 µM”, the viability, T/C was 140, 113, 137, 131%.
Turning to `NC1c2ccccc2OC12CCN(c1cnc3c(N4CCCc5ncccc54)n[nH]c3n1)CC2` (stereo unspecified), the viability, T/C runs as follows: (compound alone 0.316 µM) 85.2, 86, 70.5, 59.5%; (compound alone 3.16 µM) 79.7, 87.3, 58.6, 64.1%; (compound alone 10 µM) 83.6, 94.4, 61.6, 66.1%.
Take `CC1(C)CCC(Nc2ncc(C(F)(F)F)c(-c3c[nH]c4c(P(C)(C)=O)c(C#N)ccc34)n2)CN1` (stereo unspecified): the IC50 is reported as 14.4, 12.5, 3.86, 3.42 nM. In addition, under “compound alone 0.000949 µM”, the viability, T/C was 114, 118, 106, 92%. Besides, for the setting “compound alone 0.003 µM”, the viability, T/C was 87.4, 75.5, 54.4, 53%. In addition, the viability, T/C (compound alone 0.00949 µM) is listed as 52.8, 53.1, 34.9, 27.3%.
